# Source: ChEMBL document CHEMBL1201862, “PubChem BioAssay data set” (2004)
#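 Five concentrations, 48 hours, 96-well plates. Here, GI50 denotes the concentration required for 50% inhibition of growth.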 Activity calls are given as the source filed them. No stated cut-off is given here; in the data, active = GI50 up to about 1.1 µM and inactive = higher.
# System: NCI-H322M
# Test: NCI tumour cell line growth inhibition, 48 h
row,SMILES,GI50
1,OCCNCCN1CCN(CCCN2c3ccccc3Sc3ccc(C(F)(F)F)cc32)CC1,inactive: 24.8 µM
2,COc1cc(C2c3cc4c(cc3OC(NCCO)C2C)OCO4)cc(OC)c1OC (configuration not stated),active: 0.225 µM
3,C1=N\CCNCC/N=C\c2ccc(cc2)OCc2cccc(n2)COc2ccc/1cc2,inactive: > 100 µM
4,Cc1ccc([N+](=O)[O-])cc1NC(=O)c1cccc([N+](=O)[O-])c1O,inactive: 8.65 µM
5,CCCCC(C(=O)CCC(=O)Nc1ccc(Cl)c(Cl)c1)C(=O)C(C)C (configuration not stated),inactive: > 100 µM
6,CN(C)CCCNC(=O)CCNC(=O)c1cc(NC(=O)c2cc(NC(=O)c3cc(NC(=O)c4nc(NC(=O)CCCNC(=O)c5cc(NC(=O)c6cc(NC(=O)c7cc(NC(=O)c8nccn8C)cn7C)cn6C)cn5C)cn4C)cn3C)cn2C)cn1C,inactive: > 100 µM
7,CC(=O)Nc1ccc(Nc2cc(O)nc(O)n2)cc1,inactive: > 100 µM
8,CN1C(=O)CC(=O)N1/C(=C/c1ccccc1)c1ccccc1,inactive: > 100 µM
9,COc1cc2oc(-c3ccc(O)cc3)cc(=O)c2c(OC)c1OC,inactive: > 100 µM
10,CN(C)CCCN1c2ccc3ccccc3c2Sc2cccc(Cl)c21,inactive: 5.32 µM
11,Nc1ncn2c(n1)nc1ccccc12,inactive: > 100 µM
12,OC[C@H]1O[C@@H](n2cnc3cncnc32)[C@H](O)[C@@H]1O [NEBULARINE],inactive: 1.69 µM
13,c1ccc2c(Cc3[nH]c4ccccc4c3Cc3c[nH]c4ccccc34)c[nH]c2c1,inactive: 3.65 µM
14,CC(C)(C)C1CCC2c3c([nH]c4ccccc34)C3C(=O)N(c4cccc(Cl)c4)C(=O)C3C2C1 (configuration not stated),inactive: 16.4 µM
15,CSc1nnc(COc2ccc(Cl)cc2)o1,inactive: > 100 µM
16,COC(=O)C1=C(C)C=C(N2CCOCC2)C(C(=O)OC)C1c1ccccc1 (configuration not stated),inactive: > 10 µM
17,O=c1c2c3c(sc2nc(CN2CCNCC2)n1-c1ccccc1)CCCC3,inactive: > 100 µM
18,COc1ccc(CCc2ccccc2CC(=O)O)cc1,inactive: > 100 µM
19,CC(C)C[C@H](NC(=O)[C@H](Cc1ccccc1)NC(=O)CCc1ccccc1)B(O)O,active: < 0.01 µM
20,O=C(OC1C#CCSCC#C/C=C\1)c1cnc2ccccc2n1 (configuration not stated),inactive: > 100 µM
21,COc1ccc2oc3c(OC)c(OC)c(OC)cc3c(=O)c2c1,inactive: > 100 µM
22,CC(C)(C)c1cc([Si](C)(C)C)c(C#N)c([Si](C)(C)C)c1,inactive: > 100 µM
23,CCC12C=CCN(CCc3c([nH]c4ccccc34)/C=C\1)C2 (configuration not stated),inactive: > 100 µM
24,CC(=O)OC(OC(C)=O)c1c2ccccc2cc2ccccc12,inactive: 25.4 µM

row,SMILES,GI50
1,CN(CC(=O)O)S(=O)(=O)c1ccc(Cl)cc1,inactive: > 100 µM
2,O=C1CCCC/C1=C\c1ccc(Br)cc1,inactive: 20.3 µM
3,COc1ccc(/C(Cl)=C(\C=O)c2ccc([N+](=O)[O-])cc2)cc1,inactive: 23.3 µM
4,CN(C)CCNC(=O)c1cccc2nc3cc(Cl)ccc3nc12,inactive: 2.08 µM
5,O=C(CC12C3C4C1C1C2C3C41CC(=O)NO)NO (configuration not stated),inactive: 62.2 µM
6,CC(C)/C=C1\CCC(CN2CCCC2)C1=O (configuration not stated),inactive: 23.2 µM
7,O=C(c1c(O)cc(O)cc1O)C1Cc2ccccc21 (configuration not stated),inactive: > 100 µM
8,COC(=O)C[C@H](COCc1ccccc1)NC(=O)C[C@H](COCc1ccccc1)NC(=O)OC(C)(C)C,inactive: 25.5 µM
9,C[C@@H]1C[C@H](O)[C@]2(O)O[C@@H]3C[C@@]4(C=O)[C@@H](CC[C@@H]5[C@@H]4CC[C@]4(C)[C@@H](C6=CC(=O)OC6)CC[C@]54O)C[C@H]3O[C@@H]2O1 [CALOTROPIN],active: 0.0282 µM
10,COc1ccc(NC(=S)NN=C(C)c2cccc(C(C)=NNC(=S)Nc3ccc(OC)cc3)n2)cc1,inactive: 5.12 µM
11,CCS/C(=N\c1ccccc1)SC,inactive: > 100 µM
12,COC1OC(=O)[C@H]2O[N+]([O-])=C(C)[C@@H]12 (some centres not stated),inactive: > 100 µM
13,O=C1CC(=O)c2c(N3CCCC3)sc(N3CCCC3)c21,inactive: > 100 µM
14,O=C(O)c1nn[nH]c1Cl,inactive: > 100 µM
15,Clc1ccc2c(c1)[nH]c1c2nc2ccccn21,inactive: 19.6 µM
16,OC(C1CCCCCCCCCC1)C(O)C1CCCCCCCCCC1 (configuration not stated),inactive: > 100 µM
17,CC1=NN(c2ccccc2)C(=O)/C1=C1\SC(c2ccccc2)(c2ccccc2)c2ccccc21,inactive: > 100 µM
18,COC1OC2COC(c3ccccc3)OC2C(O)C1OC(=S)c1ccccc1 (configuration not stated),inactive: 40.7 µM
19,CSC(=S)Nc1cccc(C)n1,inactive: > 100 µM
20,Nc1c(C(=O)O)nnc2cc(Cl)c(Cl)cc12,inactive: > 100 µM
21,O=C(O)C(O)(c1ccc(-c2ccccc2)cc1)c1ccc(-c2ccccc2)cc1,inactive: 27.9 µM
22,S=c1[nH]c2ccc(Br)cc2c(=S)n1-c1ccccc1,inactive: 17.8 µM
23,O=C(NC(c1ccccc1)C(O)C(=O)OCc1ccc2c(c1)C(=O)c1ccccc1C2=O)c1ccccc1 (configuration not stated),inactive: 7.85 µM
